Source: PubChem BioAssay AID624170 (National Center for Advancing Translational Sciences (NCATS), 2012)
The campaign covered roughly 410,000 compounds. About 850 (0.21%) were called active. The shares of active, inactive and inconclusive entries below differ from those in the screen. Calls follow the shape of the dose curve; as a rule, active = well fitted inhibition curve with a large enough effect; inconclusive = small, poorly fitted or top-dose-only effect, or another doubt; inactive = no such curve, though single readings can be large or run the other way. Potencies of inconclusive entries are left out as doubtful fits.

Each molecule was assayed against Glutaminase kidney isoform, mitochondrial (Homo sapiens) (UniProt O94925) (assay: qHTS for Inhibitors of Glutaminase (GLS)). Details: GLS enzymatic activity, qHTS titration; series mostly up to 45.5 µM.
UniProt O94925, sequence (O94925 whole entry, looked up, canonical isoform): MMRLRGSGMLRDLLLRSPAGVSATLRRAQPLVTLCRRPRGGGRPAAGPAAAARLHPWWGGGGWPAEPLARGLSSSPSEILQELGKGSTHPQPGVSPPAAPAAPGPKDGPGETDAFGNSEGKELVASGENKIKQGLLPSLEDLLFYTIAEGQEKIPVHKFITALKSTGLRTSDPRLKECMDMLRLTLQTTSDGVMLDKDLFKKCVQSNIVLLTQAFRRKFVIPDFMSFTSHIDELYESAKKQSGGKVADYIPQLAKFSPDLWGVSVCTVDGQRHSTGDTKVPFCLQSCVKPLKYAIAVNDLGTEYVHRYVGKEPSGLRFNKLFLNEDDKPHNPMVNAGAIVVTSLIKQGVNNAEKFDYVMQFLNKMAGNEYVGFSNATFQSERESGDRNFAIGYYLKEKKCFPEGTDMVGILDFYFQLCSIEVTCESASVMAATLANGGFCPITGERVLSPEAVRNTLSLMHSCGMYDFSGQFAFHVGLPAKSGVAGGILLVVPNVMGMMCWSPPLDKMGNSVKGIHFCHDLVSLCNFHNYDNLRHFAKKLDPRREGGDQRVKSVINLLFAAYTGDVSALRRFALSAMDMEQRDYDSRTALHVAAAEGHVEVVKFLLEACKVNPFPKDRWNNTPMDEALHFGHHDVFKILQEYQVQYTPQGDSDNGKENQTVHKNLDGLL
Method in brief: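 Compounds were pin-transferred onto hKGA, after which L-glutamine (1 mM solution) and a detection mix of glutamate oxidase, HRP and Amplex Red were added. Initial and 30 min RT fluorescence reads were collected.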
Potency is read from the fitted curve at half-maximal effect; tags tell the direction and shape of the fitted curve.

Structure (SMILES)	Potency
CN(C)C(CNC(=O)c1cccc(S(=O)(=O)N2CCN(c3ccccc3)CC2)c1)c1ccccc1 (centres undefined)	inactive
N#CC1=C(N)Oc2cc(N)ccc2C1c1ccccc1F (centres undefined)	inconclusive [inhibitor, single point]
Cc1nnc(SCC(=O)N(Cc2ccccc2)C(C)(C)C)[nH]c1=O	inconclusive [inhibitor, single point]
CC1=NN(c2ccccc2)C(=O)/C1=C/c1cccc(C)c1	inconclusive [inhibitor, single point]
Cc1nc(CN2CCN(C(=O)CCc3nnc(Cc4c[nH]c5ccccc45)o3)CC2)cs1	inconclusive [inhibitor, single point]
COc1ccccc1NC(=S)NNC(=S)Nc1ccc(OC(F)F)cc1	inconclusive [inhibitor, single point]
Cc1sc2nc[nH]c(=S)c2c1-c1ccccc1	inconclusive [inhibitor, partial curve, poor fit]
Cc1[nH]ncc1N=Cc1ccc([N+](=O)[O-])cc1	inconclusive [inhibitor, single point]
O=C(CSc1nnnn1C1CCCCC1)Nc1cccc(NC(=O)c2ccco2)c1	inconclusive [inhibitor, single point]
S=C(NCCCN1CCOCC1)N1CCN(c2nc(-c3ccccc3)cs2)CC1	inactive
COc1cccc(C2=CC(=O)CC(c3ccco3)C2)c1 (centres undefined)	inactive
CCc1cc2cccc(C)c2nc1SCC(=O)NNC(=O)c1ccco1	inconclusive [inhibitor, single point]
CCCC(c1c(C)n(C)n(-c2ccccc2)c1=O)c1c(C)n(C)n(-c2ccccc2)c1=O	inconclusive [inhibitor, single point]
CSC1=NC=C(C#N)C2=NC(c3ccc(Cl)cc3)NN12 (centres undefined)	active: 12.6 µM
Cc1ccc(-c2nnc(Nc3ccc(Br)cc3)c3ccccc23)cc1S(=O)(=O)N1CCOCC1	inactive
O=C(CN1C(=O)C(c2ccccc2)Oc2cccnc21)NCc1ccccc1F (centres undefined)	inconclusive [inhibitor, single point]
CCC(C)(C)n1nnnc1C(c1ccc2ncccc2c1)N1CCN(Cc2ccc3c(c2)OCO3)CC1 (centres undefined)	inconclusive [inhibitor, single point]
Cc1ccnc(N/C=C(\C#N)c2nc(-c3cccc(Br)c3)cs2)c1	inconclusive [inhibitor, single point]
COc1ccc2nc(N3CCOCC3)cc(C)c2c1	inconclusive [inhibitor, single point]
Cn1ncc2c(Nc3ccc(O)cc3)nc(Cl)nc21	inconclusive [inhibitor, partial curve]
N#Cc1c[nH]n2c(NC3CCCC3)c(-c3ccc(Cl)cc3)nc12	inconclusive [inhibitor, single point]
COc1cc(C2C(C(=O)c3ccco3)=C(O)C(=O)N2Cc2ccccc2)ccc1O (centres undefined)	inconclusive [inhibitor, partial curve, poor fit]

Structure (SMILES)	Potency
CCN(CC)CCNC(=O)c1ccc(NC(=O)c2ccc(F)cc2)cc1	inactive
CCSc1ccc([C@@H]2[C@H]3C(=O)N(CC)C(=O)[C@H]3[C@]3(C(=O)OC)CCCCN23)cc1OC	inactive
CC(=O)Oc1ccc2c(c1)c(C(C)=O)c(C)n2C	inactive
COc1ccc(C(=O)N(Cc2cc(OC)c(OC)c(OC)c2)C2CCS(=O)(=O)C2)cc1Cl (centres undefined)	inactive
CC1(C)Oc2ccc(C(=O)NNC(=O)Nc3ccccc3)cc2NC1=O	inconclusive [inhibitor, partial curve, poor fit]
S=c1[nH]cnc2scc(-c3ccc(Cl)cc3)c12	inconclusive [inhibitor, single point]
CCOc1ccc(-c2nc(SCC(=O)Nc3cc(F)ccc3F)n3[nH]c(=O)cc3n2)cc1	inconclusive [inhibitor, single point]
Cc1ccc(C(=O)c2oc3ccccc3c2NC(=O)Cc2ccccc2)cc1	inactive
COC(=O)c1ccc(Oc2cc(C)nc(Cl)n2)cc1	inactive
CC1=NN(c2ccc(Cl)cc2)C(=O)C1	inactive
CC1CCCCN1C(=O)Cn1cnc2cc([N+](=O)[O-])ccc2c1=O (centres undefined)	inconclusive [inhibitor, single point]
CN(C)c1ccc(NC(=S)NCC2CCCO2)cc1 (centres undefined)	inconclusive [inhibitor, partial curve, poor fit]
Cc1ccc(-c2ccc(/C=N/NC(N)=S)o2)cc1	inconclusive [inhibitor, single point]
C=C(C)C(=O)Nc1cccc(C2=NOC3(C2)C[C@@H](C(N)=O)N(C(=O)c2cc([N+](=O)[O-])cc([N+](=O)[O-])c2C)C3)c1 (some centres undefined)	inconclusive [inhibitor, single point]
CCCCNC(=O)Nc1ccccc1C(=O)NCc1ccco1	inconclusive [inhibitor, partial curve]
CC(C)=CCC[C@H](C)C[C@@H]1CC2=C(C(=O)OC(C)(C)O2)[C@@H](c2ccc(F)cc2)O1	inactive
CC1=C(C(=O)OC(C)C)C(c2ccc(Cl)cc2)n2c(s/c(=C\c3ccc(OCC(=O)O)cc3)c2=O)=N1 (centres undefined)	active: 11.2 µM
CC(C)c1ccc(-c2noc(C3CCCN(C(=O)c4ccc(F)cc4F)C3)n2)cc1 (centres undefined)	inconclusive [inhibitor, single point]
COc1ccc(OC)c(CCNC(=O)CCn2nc(C)c3c(C)n(-c4ccccc4)nc3c2=O)c1	inconclusive [inhibitor, single point]
O=C(NCCO)Nc1ccc2nsnc2c1	inactive
O=S1(=O)CC(O)C(O)CS1 (centres undefined)	inactive
O=C(CNCc1ccccc1Cl)Nc1ccc(C(=O)N2CCCCC2)cc1	inconclusive [inhibitor, partial curve, poor fit]
